Source: publication PMC4336329 (PLoS ONE, 2015)
The whole screen tested about 310,000 compounds, of which about 14,000 (4.5%) showed an effect of 50% or more. The effect is printed as a negative number. Some of the results follow.

Molecular target: human ether-à-go-go-related gene (hERG) potassium channel (human, UniProt Q12809)
Assay: primary screen, population patch clamp on CHO cells stably expressing hERG
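Further: peak tail current of the secondary pulse compared with the same well before compound.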

human ether-à-go-go-related gene (hERG) potassium channel, sequence (Q12809 whole entry, looked up): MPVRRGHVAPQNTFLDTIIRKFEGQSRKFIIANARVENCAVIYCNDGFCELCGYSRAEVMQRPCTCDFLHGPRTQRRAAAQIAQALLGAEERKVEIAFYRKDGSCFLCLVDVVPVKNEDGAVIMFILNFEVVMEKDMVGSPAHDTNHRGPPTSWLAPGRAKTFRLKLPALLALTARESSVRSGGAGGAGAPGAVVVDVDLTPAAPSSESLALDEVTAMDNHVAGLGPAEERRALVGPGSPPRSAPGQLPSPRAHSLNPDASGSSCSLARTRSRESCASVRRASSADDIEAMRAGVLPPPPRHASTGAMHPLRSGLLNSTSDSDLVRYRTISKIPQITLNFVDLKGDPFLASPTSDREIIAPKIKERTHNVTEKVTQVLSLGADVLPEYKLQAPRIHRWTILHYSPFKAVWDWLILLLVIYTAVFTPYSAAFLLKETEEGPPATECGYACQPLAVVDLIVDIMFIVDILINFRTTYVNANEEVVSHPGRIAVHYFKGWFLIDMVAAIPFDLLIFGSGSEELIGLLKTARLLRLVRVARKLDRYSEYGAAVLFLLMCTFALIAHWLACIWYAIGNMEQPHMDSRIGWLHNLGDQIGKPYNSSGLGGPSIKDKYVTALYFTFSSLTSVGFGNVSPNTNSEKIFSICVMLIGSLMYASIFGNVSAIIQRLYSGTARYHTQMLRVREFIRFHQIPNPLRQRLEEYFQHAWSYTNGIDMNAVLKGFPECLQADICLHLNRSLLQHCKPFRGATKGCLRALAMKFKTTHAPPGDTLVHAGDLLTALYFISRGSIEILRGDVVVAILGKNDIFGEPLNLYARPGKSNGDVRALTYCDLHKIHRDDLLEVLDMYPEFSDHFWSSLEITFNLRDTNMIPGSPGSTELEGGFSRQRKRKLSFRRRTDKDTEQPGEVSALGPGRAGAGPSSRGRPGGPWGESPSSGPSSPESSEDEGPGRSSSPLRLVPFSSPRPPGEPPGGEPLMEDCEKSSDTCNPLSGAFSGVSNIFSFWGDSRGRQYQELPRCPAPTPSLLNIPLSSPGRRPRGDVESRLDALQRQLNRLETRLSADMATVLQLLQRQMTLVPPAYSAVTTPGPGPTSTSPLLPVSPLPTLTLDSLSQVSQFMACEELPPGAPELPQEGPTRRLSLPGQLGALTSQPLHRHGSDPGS

| Compound | hERG current change (%, negative = inhibition) at 10uM |
| --- | --- |
| C=CCO/N=C(\C)c1c(O)c(C)c(-c2ccccc2)n(-c2ccccc2)c1=O | -4.99% |
| O=C(Cc1ccccc1)Oc1ccc(N2C(=O)CCC2=O)cc1 | 6.02% |
| Cc1cccc(N(C)C(=O)CCS(=O)(=O)c2cc3c(cc2Cl)NC(=O)CO3)c1 | -42.9% |
| C[N+]1(CC(=O)OCCCc2ccccc2)CCOCC1.[I-] | 10.9% |
| COC(=O)CSc1nnc(CSc2nc(C)cc(C)n2)o1 | 25% |
| O=C(CCCSc1nc2ccccc2s1)NCc1ccco1 | -27.3% |
| COc1ccc(C(=O)Nc2nc3nccc(-c4ccccc4)n3n2)cc1 | -21.2% |
| COc1ccc(OC)c(C2Nc3ccccc3NC3=C2C(=O)CC(C)(C)C3)c1 (stereo not drawn) | 15.4% |
| COc1ccc(C(=O)COC(=O)c2ccc(Cl)nc2)c(OC)c1 | -29.6% |
| Fc1cc2nccnc2cc1N1CCSCC1 | 0.084% |
| O=C1OCC(CO)(CO)N=C1NNc1ccccc1[N+](=O)[O-] | 10.4% |
| Cc1ccc(OCCC(=O)NNC(=O)c2nn(C)c(=O)c3ccccc23)cc1 | -33.1% |
| CCC(C)c1ccccc1N1CC(C(=O)NCCCn2nc(C)cc2C)CC1=O (stereo not drawn) | 0.0933% |
| COc1ccccc1NC(=S)N/N=C/c1ccc(O)cc1 | 5.84% |
| CCCc1nnc(NC(=O)c2cccnc2)s1 | 9.3% |
| CC(C)(C)S(=O)c1cccs1 (stereo not drawn) | 14.7% |
| c1cncc(N=c2scc(-c3cccc4ccccc34)n2CCCn2ccnc2)c1 | -56.5% |
| CC(=O)Nc1cccc(NC(=O)Nc2ccc(C)c(Cl)c2)c1 | 47.8% |
| Cc1ccc(C)c(NC(=S)N2CCC(N(C)CC3CCCO3)CC2)c1 (stereo not drawn) | -8.91% |
| COc1ccc(NC(=O)Nc2cccc(C(=O)N3CCOCC3)c2)cc1OC | 0.11% |
| Cc1ccccc1C(=O)N1CCC(C(=O)Nc2nccs2)CC1 | 45.5% |
| Fc1cccc(Cl)c1CSc1nnc(-c2ccncc2)o1 | -12.5% |

| Compound | hERG current change (%, negative = inhibition) at 10uM |
| --- | --- |
| Oc1csc(Cc2nc(-c3ccc4ccccc4c3)cs2)n1 | 7.14% |
| CC/C(=N\NC(=O)c1c(C)nc2ccccn12)c1ccccc1 | 23.1% |
| CCCCc1nn2c(N)c(/C=C3\C=Nc4ccccc43)c(=O)nc2s1 | -5.84% |
| O=C(Cc1ccc(-n2c(=S)[nH]c3ccccc3c2=O)cc1)N1CCC(N2CCCCC2)CC1 | -14% |
| COc1ccc(CNC(=O)C(=O)NCC2CCCN2S(=O)(=O)c2cccs2)cc1 (stereo not drawn) | -13.8% |
| CN(C)S(=O)(=O)c1cccc(NC(=O)COC(=O)c2cccn2C)c1 | -3.94% |
| O=C(COC(=O)Cc1ccccc1F)Nc1ccc(F)cc1F | -3.56% |
| CCC(C)Nc1nc(N)c([N+](=O)[O-])c(Nc2cc(OC)ccc2OC)n1 (stereo not drawn) | 11.2% |
| COc1ccccc1NC(=O)C(NC(=O)OC(C)(C)C)C(C)OCc1ccccc1 (stereo not drawn) | 2.08% |
| CCOc1ccc(C(c2c(NC(=O)c3ccccc3)sc(C)c2C)N2CCN(CCO)CC2)cc1 (stereo not drawn) | -21.1% |
| Cc1cc(C(F)(F)F)nc2c(Cl)c(C(C)(C)C)nn12 | 11.9% |
| Cc1ccc2cc(COC(=O)c3ccncc3)c(=O)[nH]c2c1 | -7.04% |
| O=C(O)c1nn(-c2ccccc2)c(-c2ccccc2)c1C(=O)c1ccccc1 | -14.3% |
| CCOc1ccc2cc(C3CC(c4ccco4)=NN3S(C)(=O)=O)c(Cl)nc2c1 (stereo not drawn) | -19.5% |
| CC(=O)Nc1ccc(/C(C)=N/NC(=O)C2CC2c2ccccc2)cc1 (stereo not drawn) | -8.88% |
| Cc1cc(C)nc(NN2C(=O)/C(=C/c3ccc(O)cc3)SC2=S)n1 | -9.07% |
| COc1ccc(NC(=O)c2cncc(Br)c2)c(S(=O)(=O)N2CCOCC2)c1 | -3.95% |
| O=C(CCC1CCCN(C(=O)c2ccsc2)C1)N1CCN(c2ccccn2)CC1 (stereo not drawn) | -12.9% |
| CCOC(=O)c1c(C)n(S(=O)(=O)c2ccc(C)cc2)c2ccc(O)c(C(=O)O)c12 | -29.8% |
| CC1CCN(S(=O)(=O)c2ccc(S(=O)(=O)NCC3COCCO3)cc2)CC1 (stereo not drawn) | 7.47% |
| COc1ccc(-c2cn[nH]c2N)cc1OC | 10.7% |
| COc1ccc(CCNC(=O)CNC(=O)c2ccccc2Br)cc1OC | -5.29% |

| Compound | hERG current change (%, negative = inhibition) at 10uM |
| --- | --- |
| CCOC(=O)/C(=C\c1cccc(O)c1)c1nc2sc(C)c(C)c2c(=O)[nH]1 | 12.3% |
| Cc1ccc(Oc2nc3c(c(=O)n(Cc4ccccc4F)c(=O)n3C)n2C)cc1 | -16.5% |
| COc1cccc(NC2=C(NCCO)C(=O)c3ccccc3C2=O)c1 | -8.76% |
| Cc1c(Cl)cnc(NC(=O)COC(=O)c2cccc(S(=O)(=O)N3CCc4ccccc4C3)c2)c1Cl | 22.9% |
| CCN1CCN(c2ccc(S(=O)(=O)N3CCOCC3)cc2NC(=O)/C=C/c2ccc(C)cc2)CC1 | -46% |
| COC(=O)c1c(NC(=O)c2ccoc2C)sc(C)c1C | 2.34% |
| O=C(NCCCCNC(=O)c1cccnc1Cl)c1cccnc1Cl | 15.7% |
| CCN1C(=O)NC2=C(C(=O)c3ccccc32)C1c1ccccc1F (stereo not drawn) | 15.2% |
| CC(C)C(=O)N1CCN(c2ccc(NC(=O)c3ccc4c(c3)OCCO4)cc2Cl)CC1 | -15% |
| COc1ccc(F)cc1CN1CCN(c2ncnc3scc(-c4ccccc4)c23)CC1 | -41.6% |
| CC(=O)c1c(O)cc(=O)n(-c2ccccc2)c1-c1cccc2ccccc12 | 25.3% |
| COc1ccccc1C1CC(=O)NC(SCC(=O)Nc2ccccc2)=C1C#N (stereo not drawn) | 5.8% |
| Cc1ccnc(NS(=O)(=O)c2ccc(NC(=O)Cc3cccs3)cc2)n1 | 13.8% |
| O=C(CCCN1C(=O)c2cccnc2C1=O)Nc1ccccc1F | 28.3% |
| COC(=O)c1cccnc1-n1c(=O)c2cccnc2n(Cc2cccc(OC)c2)c1=O | -5.19% |
| CCOC(=O)c1cnc(SCC(=O)Nc2ccc(N3CCOCC3)cc2)nc1N | -0.979% |
| Cc1ccc(S(=O)(=O)N2CCCc3cc(NC(=O)c4c(F)cccc4F)ccc32)cc1 | 6.51% |
| CCOC(=O)c1c(C)[nH]c(C(=O)OCc2ccccc2)c1C | 11% |
| CCOC(=O)c1c(NC(=O)CSc2nc3ccccc3s2)sc(C(C)=O)c1C | 18.5% |
| CCCN(CC(=O)Nc1ccccc1OC)C(=O)c1ccc(S(=O)(=O)Nc2ccccc2)cc1 | -53.4% |
| CC1CCN(C(=O)CCCC(=O)O)CC1 | 18% |
| O=C(COc1ccccc1C(=O)NCc1ccncc1)Nc1ccc(Br)cc1 | 3.71% |

| Compound | hERG current change (%, negative = inhibition) at 10uM |
| --- | --- |
| COc1ccc(N(CC(=O)Nc2cccnc2)S(=O)(=O)c2ccc(C)cc2)cc1Cl | -16.9% |
| CC1CN(c2nc3ccccc3nc2SCC(=O)Nc2cccc(C(F)(F)F)c2)CC(C)O1 (stereo not drawn) | 12.1% |
| COc1ccc(C2=NN(C(=O)CSc3ncccn3)C(c3ccc(C)cc3)C2)cc1 (stereo not drawn) | 2.72% |
| O=C(Nc1n[nH]c(C(F)(F)F)n1)c1cccs1 | 4.63% |
| CCCN1C(=O)c2ccccc2NC1c1ccc(OC)cc1OC (stereo not drawn) | 1.63% |
| O=C(NCc1ccco1)c1cc2n(n1)C(C(F)(F)F)CC(c1ccc(F)cc1)N2 (stereo not drawn) | -4.65% |
| CS(=O)(=O)c1ccc(S(=O)(=O)N2CCC(CO)(CCCc3ccccc3)CC2)cc1 | -41.4% |
| COc1ccc(C(CNC(=O)CNC(=O)c2cccc(Cl)c2)N2CCCC2)cc1 (stereo not drawn) | -33.8% |
| O=c1cc(-c2ccc(Cl)c(Cl)c2)[nH][nH]1 | 20.4% |
| O=C(N/N=C\c1ccco1)c1cncc(Br)c1 | 12.3% |
| C[C@H]1CC[C@]2(O[C@H](CCO)C[C@H](O)[C@H]2O)O1 | 13.1% |
| COc1ccc(C2(c3ccc(OC)cc3)NC(=O)N(CC(=O)Nc3ccc(OC(F)F)cc3)C2=O)cc1 | -19.2% |
| CCOC(=O)C1CCN(S(=O)(=O)c2ccc(Cl)cc2OC)CC1 | -39.4% |
| O=C(CN1CCN(c2ncccn2)CC1)N1CCc2ccccc21 | 2.82% |
| Cc1ccc(N2C(=O)CC(Cc3ccc(Cl)cc3)C2=O)cc1 (stereo not drawn) | 2.42% |
| CC(=O)Nc1ccc(Sc2ccccc2C(=O)Nc2ccc(F)cc2)cn1 | 14.7% |
| Cc1nn(CC#N)c(=O)n1N(C)c1ncc(C(F)(F)F)cc1Cl | -1.82% |
| NS(=O)(=O)c1ccc(NC(=O)CN2CCCN(S(=O)(=O)c3ccc(F)cc3)CC2)cc1 | -17.9% |
| Cc1cc(N2CCN(Cc3nc(-c4ccc(F)cc4)oc3C)CC2)cc(C)n1 | -53.8% |
| O=C(Nc1nc(SCc2ccc(F)cc2)ns1)c1ccco1 | -39.6% |
| Cc1ccc(C(C)NC(=O)C2CCCC2)cc1C (stereo not drawn) | -9.17% |
